# Reference: the BET-seq Pho4 binding data (Le et al. 2018)
# This is one part of the list. The energies were worked out here from pooled read counts, against the library average; single values are noisy.
# Target: T1, Pho4 (S. cerevisiae) (UniProt P07270)
# T1 sequence: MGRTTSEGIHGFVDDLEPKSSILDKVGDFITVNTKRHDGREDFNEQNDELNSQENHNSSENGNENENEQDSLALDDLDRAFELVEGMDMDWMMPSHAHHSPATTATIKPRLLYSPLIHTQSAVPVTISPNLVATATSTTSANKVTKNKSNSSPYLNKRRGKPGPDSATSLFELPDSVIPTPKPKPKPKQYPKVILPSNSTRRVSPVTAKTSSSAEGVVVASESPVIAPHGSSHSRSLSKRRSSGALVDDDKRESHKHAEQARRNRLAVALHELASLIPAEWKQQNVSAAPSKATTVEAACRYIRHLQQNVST
# Assay: relative binding free energy (BET-seq); higher = weaker binding
# Settings: reference: library average
row,Sequence,relative binding free energy
1,TTTTTCACGTGTTGTG,0.27 kcal/mol
2,CGTTGCACGTGTGCGT,-0.02 kcal/mol
3,TTTGTCACGTGATAGT,0.25 kcal/mol
4,TGGGTCACGTGAATGG,0.45 kcal/mol
5,ATGTGCACGTGGACTT,-0.11 kcal/mol
6,CATCGCACGTGTGGGG,0.05 kcal/mol
7,GCTGCCACGTGTGGTA,0.13 kcal/mol
8,TAGGGCACGTGTGTAA,-0.15 kcal/mol
9,GGAGGCACGTGAATAG,0.09 kcal/mol
10,ATATGCACGTGAGGCT,0.12 kcal/mol
11,GAGGTCACGTGTAAAG,0.35 kcal/mol
12,TGCGTCACGTGAGTGA,0.13 kcal/mol
13,GCGGTCACGTGTTGTT,0.13 kcal/mol
14,CTGGTCACGTGAGGGA,0.2 kcal/mol
15,GAGTGCACGTGATATG,0.21 kcal/mol
16,TGGTGCACGTGAGGAG,0.23 kcal/mol
17,CTTTACACGTGGATGA,0.13 kcal/mol
18,TAGAGCACGTGTGGTA,-0.05 kcal/mol
19,GGTCGCACGTGGTGTC,-0.06 kcal/mol
20,TTCTGCACGTGGCAGG,0.09 kcal/mol
21,TGGGTCACGTGACGTG,0.21 kcal/mol
22,ATGGACACGTGAGTTT,0.36 kcal/mol
23,AAGGGCACGTGGTAAA,-0.18 kcal/mol
24,GGGGCCACGTGGTTAA,-0.1 kcal/mol
25,GTTAACACGTGGGTGC,-0.1 kcal/mol
26,TGACGCACGTGGGAAG,-0.1 kcal/mol

row,Sequence,relative binding free energy
1,GACGTCACGTGTGAGT,0.3 kcal/mol
2,AGGCGCACGTGGGTGG,-0.26 kcal/mol
3,GGAGTCACGTGGGGTT,0 kcal/mol
4,TTTTGCACGTGGGCGG,-0.13 kcal/mol
5,CGAGGCACGTGGCGTG,-0.25 kcal/mol
6,GCAAGCACGTGCGTGG,-0.19 kcal/mol
7,AGTTTCACGTGACTTA,0.3 kcal/mol
8,GTAGCCACGTGATGTT,0.11 kcal/mol
9,CACGGCACGTGAGGGT,0.24 kcal/mol
10,TTTACCACGTGGGGTT,-0.11 kcal/mol
11,GGATGCACGTGAGAGT,0.33 kcal/mol
12,GGGTGCACGTGTAAGT,0.08 kcal/mol
13,GTTGTCACGTGCTGTC,0.13 kcal/mol
14,TGATTCACGTGGCTAT,0.31 kcal/mol
15,GCGGTCACGTGAAGGG,0.34 kcal/mol
16,AGCAGCACGTGGGGTT,-0.27 kcal/mol
17,TTAGGCACGTGTTGCG,-0.23 kcal/mol
18,AGAGGCACGTGGGTAT,-0.28 kcal/mol
19,AGAGGCACGTGGATGG,-0.18 kcal/mol
20,TAGGGCACGTGAGCTG,0.06 kcal/mol
21,GGTTACACGTGGCGAG,0.15 kcal/mol
22,ATGGGCACGTGTTTGT,-0.17 kcal/mol
23,CGGTGCACGTGGTATA,-0.24 kcal/mol
24,TTTCTCACGTGATGGG,0.33 kcal/mol
25,GTGGTCACGTGTTAGT,0.1 kcal/mol
26,TAGCGCACGTGGGTCG,-0.27 kcal/mol

row,Sequence,relative binding free energy
1,GTGTCCACGTGTAGGT,0.15 kcal/mol
2,AGAGCCACGTGAGGGG,0.14 kcal/mol
3,TAGAGCACGTGAATTG,0.2 kcal/mol
4,GTTTGCACGTGACCGT,0.21 kcal/mol
5,TGAGTCACGTGGTAGT,-0.07 kcal/mol
6,GCTGACACGTGTTTTT,0.03 kcal/mol
7,TTGAACACGTGTTGTT,0.03 kcal/mol
8,GTGGGCACGTGACGTT,0.09 kcal/mol
9,AAGTGCACGTGGACGT,-0.05 kcal/mol
10,ACTTACACGTGGGGGT,0.07 kcal/mol
11,CAGTTCACGTGGAGGA,0.28 kcal/mol
12,TATCACACGTGCGGTG,0.14 kcal/mol
13,GTTTACACGTGGTCTA,0.08 kcal/mol
14,GTGCACACGTGCGTGT,-0.06 kcal/mol
15,TAGGGCACGTGGTGCG,-0.21 kcal/mol
16,GGATGCACGTGGTGTA,-0.15 kcal/mol
17,TTGGTCACGTGGCTTG,0.07 kcal/mol
18,TGGTGCACGTGTACTA,-0.11 kcal/mol
19,ATAAACACGTGTGGAT,0 kcal/mol
20,GGGAGCACGTGGGATC,-0.05 kcal/mol
21,GTCTTCACGTGTGGGG,0.26 kcal/mol
22,TGAGGCACGTGCGGGT,-0.19 kcal/mol
23,TGCTTCACGTGGAGTG,0.18 kcal/mol
24,TGTCGCACGTGGAGAT,0.01 kcal/mol
25,GGCGGCACGTGCGTGG,-0.15 kcal/mol
26,AGATGCACGTGGGTAT,-0.19 kcal/mol

row,Sequence,relative binding free energy
1,ATTTTCACGTGCTTGA,0.28 kcal/mol
2,AGAGTCACGTGGAGAG,0.2 kcal/mol
3,TGTGGCACGTGTTATT,-0.08 kcal/mol
4,TTAGGCACGTGTGATA,0.02 kcal/mol
5,TCGGTCACGTGATATG,0.15 kcal/mol
6,GATGTCACGTGTGAGC,0.2 kcal/mol
7,GCTTGCACGTGTGAGG,-0.02 kcal/mol
8,GTTGTCACGTGTGATG,0.24 kcal/mol
9,TAGGACACGTGAGGGA,0.25 kcal/mol
10,ACGTTCACGTGGTGTT,0.07 kcal/mol
11,TCGTTCACGTGGTCGG,0.26 kcal/mol
12,TGGTTCACGTGGTGAG,0.36 kcal/mol
13,AGTTTCACGTGAGTTC,0.37 kcal/mol
14,GTTCACACGTGTGCTG,0.17 kcal/mol
15,TGAGTCACGTGGTTGG,0.07 kcal/mol
16,TGGGACACGTGAAGTT,0.3 kcal/mol
17,GCTTCCACGTGTGGGG,0.06 kcal/mol
18,CTTGTCACGTGCTGGA,0.16 kcal/mol
19,TATGCCACGTGGAAGT,-0.03 kcal/mol
20,GCGCCCACGTGTGGGG,-0.06 kcal/mol
21,GGAGGCACGTGTTTGT,-0.13 kcal/mol
22,TTGGTCACGTGTTCCT,0.18 kcal/mol
23,AGTTGCACGTGTTCTA,0.09 kcal/mol
24,TTGTACACGTGTAGAT,0.09 kcal/mol
25,GGTTACACGTGGCGGG,0.03 kcal/mol
26,ATGTACACGTGGAGTG,-0.02 kcal/mol

row,Sequence,relative binding free energy
1,TGTCACACGTGTTGGT,0.04 kcal/mol
2,TTTGGCACGTGGTTGG,-0.07 kcal/mol
3,AGTCACACGTGTTGCG,0.12 kcal/mol
4,GAGTGCACGTGGATGC,-0.01 kcal/mol
5,GTTTGCACGTGAGTGT,0.28 kcal/mol
6,TAGTTCACGTGTTAAA,0.27 kcal/mol
7,AGTTACACGTGTATGG,0.06 kcal/mol
8,ATTAACACGTGTAGGG,-0.04 kcal/mol
9,GTGCTCACGTGTGGAG,0.27 kcal/mol
10,ATGTTCACGTGGAGTG,0.19 kcal/mol
11,GGCGGCACGTGAGGTT,0.24 kcal/mol
12,TTCGTCACGTGGGCTT,-0.1 kcal/mol
13,TGTTGCACGTGTCATT,0.06 kcal/mol
14,ATAGCCACGTGGGGGG,-0.34 kcal/mol
15,AGGAGCACGTGCGGGG,-0.21 kcal/mol
16,TAGAACACGTGTATTT,0.15 kcal/mol
17,AGTGGCACGTGGGAAT,-0.21 kcal/mol
18,TGGAACACGTGGGGCA,-0.16 kcal/mol
19,GCGTACACGTGTTTGG,0.1 kcal/mol
20,TTTATCACGTGGGCGA,-0.08 kcal/mol
21,AAGTACACGTGGTGTT,0.05 kcal/mol
22,TAGGTCACGTGTCTAT,-0.02 kcal/mol
23,GGATGCACGTGTGGAA,0.07 kcal/mol
24,AACTGCACGTGGTATT,0.05 kcal/mol
25,TCGGACACGTGTGAGA,0.23 kcal/mol
26,AATTGCACGTGGTATA,-0.09 kcal/mol

row,Sequence,relative binding free energy
1,GGGTGCACGTGGTATG,-0.08 kcal/mol
2,ATTTGCACGTGAATAT,0.31 kcal/mol
3,TGAATCACGTGGAATT,0.2 kcal/mol
4,GTGGACACGTGTCGGG,0.11 kcal/mol
5,GGTGTCACGTGCAAGT,0.01 kcal/mol
6,ATTAGCACGTGTTTAA,-0.08 kcal/mol
7,CTTTGCACGTGTTGGC,0.12 kcal/mol
8,GGGTGCACGTGGGAGA,0.02 kcal/mol
9,ACGGCCACGTGTGGTT,0.09 kcal/mol
10,ATTTTCACGTGGTGCA,0.38 kcal/mol
11,TTAGTCACGTGAGAAG,0.38 kcal/mol
12,TTATGCACGTGCGATT,-0.08 kcal/mol
13,TGAAACACGTGATGGT,0.16 kcal/mol
14,TGTATCACGTGTTATC,0.08 kcal/mol
15,TCAGTCACGTGGTTTT,0.11 kcal/mol
16,ATTGTCACGTGGCAGG,0.06 kcal/mol
17,GGTAGCACGTGCGGGC,-0.14 kcal/mol
18,AGGGTCACGTGAATTT,0.32 kcal/mol
19,TTCGTCACGTGTAATA,0.12 kcal/mol
20,TGGCCCACGTGGTGGG,-0.07 kcal/mol
21,TGATTCACGTGAGGCT,0.4 kcal/mol
22,AAATGCACGTGTTGGT,0.03 kcal/mol
23,CGCAACACGTGGGGGG,-0.14 kcal/mol
24,GGTGGCACGTGAGTGA,0.24 kcal/mol
25,CTCTACACGTGTGGTT,0.1 kcal/mol
26,ATGGGCACGTGGAGGT,-0.08 kcal/mol

row,Sequence,relative binding free energy
1,GTGGTCACGTGTTGCA,0.13 kcal/mol
2,CATTACACGTGTTATT,0.1 kcal/mol
3,ATGTGCACGTGTTGAT,0.01 kcal/mol
4,GTTTACACGTGTCTTT,0.19 kcal/mol
5,TTGTACACGTGTGTGA,0.01 kcal/mol
6,ATCTACACGTGTTTTT,0.08 kcal/mol
7,TGGGACACGTGAAAAG,0.23 kcal/mol
8,GTAGTCACGTGAGTAT,0.31 kcal/mol
9,GGTATCACGTGTGTAC,0.36 kcal/mol
10,GAGGTCACGTGTGTCA,0.26 kcal/mol
11,TTTCGCACGTGGCGGT,-0.09 kcal/mol
12,GTGATCACGTGCGGAG,-0.03 kcal/mol
13,TCGTTCACGTGGTTTT,0.28 kcal/mol
14,CTTCTCACGTGGTGTT,0.15 kcal/mol
15,CTTTTCACGTGCAGGT,0.27 kcal/mol
16,GTGTTCACGTGTCTTT,0.25 kcal/mol
17,GGTGGCACGTGTCATT,0.01 kcal/mol
18,TTTCACACGTGGGCTG,0.02 kcal/mol
19,TAGGCCACGTGATGGA,-0.01 kcal/mol
20,TTGAACACGTGAGGAT,0.35 kcal/mol
21,AAAGGCACGTGGGTGA,-0.28 kcal/mol
22,AGTTGCACGTGAAGTA,0.28 kcal/mol
23,GGTAACACGTGTTAGT,0.07 kcal/mol
24,CGGGTCACGTGGCATG,0.03 kcal/mol
25,AGGGTCACGTGATTCA,0.25 kcal/mol
26,TTTTACACGTGGAGGT,0.13 kcal/mol

row,Sequence,relative binding free energy
1,TGCATCACGTGATGGG,0.34 kcal/mol
2,TTTATCACGTGCAATG,0.21 kcal/mol
3,GCTGGCACGTGGGCTG,-0.14 kcal/mol
4,CAGGCCACGTGGGGGA,-0.32 kcal/mol
5,GTGCACACGTGTGTTG,0.15 kcal/mol
6,TATGGCACGTGTGCGG,-0.14 kcal/mol
7,ATTTGCACGTGAAGAT,0.31 kcal/mol
8,ATTGACACGTGGCGGT,-0.11 kcal/mol
9,GTCGTCACGTGTATAG,0.06 kcal/mol
10,TTAGACACGTGTGGTG,0.09 kcal/mol
11,ATTGACACGTGCAGGT,-0.1 kcal/mol
12,GGACTCACGTGGGAGT,0.12 kcal/mol
13,AGGTTCACGTGTTGTA,0.26 kcal/mol
14,GGAGACACGTGGCTGG,-0.16 kcal/mol
15,ATTTTCACGTGGCCGT,0.31 kcal/mol
16,GATAGCACGTGGTGTA,-0.21 kcal/mol
17,TCGTGCACGTGGAGGT,-0.01 kcal/mol
18,GTCGGCACGTGGGGCA,-0.04 kcal/mol
19,ATGTCCACGTGGGTTG,-0.11 kcal/mol
20,TTTATCACGTGGCTTA,0.06 kcal/mol
21,CGGAGCACGTGTCAGG,-0.09 kcal/mol
22,GGAAGCACGTGTAGAA,0.11 kcal/mol
23,GTGATCACGTGATGAG,0.1 kcal/mol
24,AAGTTCACGTGTTTTT,0.32 kcal/mol
25,TCTGTCACGTGTATCT,0.13 kcal/mol
26,TATGTCACGTGGATTA,0.16 kcal/mol

row,Sequence,relative binding free energy
1,TAGGTCACGTGAGTCG,0.42 kcal/mol
2,ATTATCACGTGGTGCT,0.2 kcal/mol
3,AAGGGCACGTGAGTTA,0.07 kcal/mol
4,ATCAGCACGTGATGGG,-0.04 kcal/mol
5,TGGCTCACGTGTTGTG,0.19 kcal/mol
6,TATTACACGTGTTAAG,0.13 kcal/mol
7,TTATGCACGTGTATTA,-0.06 kcal/mol
8,CTTTTCACGTGTTTAA,0.3 kcal/mol
9,AGTGTCACGTGGTGTG,0.05 kcal/mol
10,GTAATCACGTGGACGG,0.2 kcal/mol
11,AGTGGCACGTGCCGGG,-0.11 kcal/mol
12,TTGCGCACGTGGGGCA,-0.28 kcal/mol
13,TGGTTCACGTGGGAGG,0.25 kcal/mol
14,AGGGTCACGTGGGGAT,-0.01 kcal/mol
15,CGGAGCACGTGTCGGT,-0.01 kcal/mol
16,GAATGCACGTGTGGAA,0.2 kcal/mol
17,TATGGCACGTGTACTT,0.03 kcal/mol
18,TGTGGCACGTGTCGCG,-0.02 kcal/mol
19,GTGGGCACGTGGCGGA,-0.2 kcal/mol
20,GTCTTCACGTGTTGGG,0.36 kcal/mol
21,ACAGGCACGTGTGGGA,-0.01 kcal/mol
22,GGGGGCACGTGCGATC,0.02 kcal/mol
